In all, about 33,000 sequences were measured (“E-score (-0.5 to 0.5)”: median about -0.013, highest 2% from about 0.3 on). The list shows a part of the results.
target: T1, Msn1 (UniProt P22148); experiment: PBM E-score (8-mer binding enrichment) (E-score (-0.5 to 0.5)); higher = stronger / more preferred TF binding; most listed sequences are background and not binding sites; settings: protein concentration: 200 nM; construct: GST-full length
T1 sequence: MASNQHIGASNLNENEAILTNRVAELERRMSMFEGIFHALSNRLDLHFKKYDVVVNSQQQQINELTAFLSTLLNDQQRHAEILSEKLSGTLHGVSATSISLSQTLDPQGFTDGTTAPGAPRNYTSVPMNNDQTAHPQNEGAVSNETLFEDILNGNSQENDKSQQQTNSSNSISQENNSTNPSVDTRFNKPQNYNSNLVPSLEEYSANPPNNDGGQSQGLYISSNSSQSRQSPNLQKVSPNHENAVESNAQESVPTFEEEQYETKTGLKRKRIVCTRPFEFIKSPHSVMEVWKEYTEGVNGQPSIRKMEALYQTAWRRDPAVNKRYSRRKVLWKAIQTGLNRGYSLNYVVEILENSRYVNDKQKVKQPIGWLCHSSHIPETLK
Procedure, shortened: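 E-scores (a modified Wilcoxon-Mann-Whitney statistic) were assigned by the Universal PBM Analysis Suite to every ungapped eight-base word pooled with its reverse complement. The input came from universal all-10-mer Agilent arrays made double-stranded by primer extension and probed with GST-tagged yeast transcription factors at about 100-200 nM. Fluorescent anti-GST detected bound protein, and masliner normalised the scans.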

Sequence | PBM E-score
AAAGCGCT | 0.174
TAGAGGAA | -0.127
GTAGCGGA | 0.0758
ATTGGCAA | 0.0916
CGTCGGGA | 0.088
CTGGTCGC | -0.0171
GACGCTGA | -0.0435
ACGGCCAT | -0.086
GCCCCCGC | -0.444
CGAGCAAC | 0.0153
TCCATGAA | 0.26
GGTTACCA | 0.0654
AACTGTGT | 0.0511
GCTTGACA | 0.0579
AGCAAGCA | -0.124
CACCGCTA | 0.00385
ATTGTTAA | 0.0881
CTGTTAAG | -0.018
GTCGATTA | 0.0601
TCACGTAA | -0.242
CGGCCAAA | 0.0245
ATAACGCC | 0.0308
ACTGTTCG | 0.145
TAAACGTA | 0.0172
AACTCTTC | -0.128

Sequence | PBM E-score
ATCGCGTA | -0.176
ACGTGTGA | 0.0644
AACCGGTG | -0.0222
GAGAAACC | -0.0447
ACCTATGG | 0.068
CTATCCCA | -0.0147
AGACGAGG | -0.131
AGTAATTA | 0.119
CCTCCTTA | -0.265
TATTCACA | 0.22
GCTGGGCC | -0.248
CGGGAATC | -0.0131
CACTCGCG | 0.0699
CTCGTACA | 0.145
TAGTTTGA | 0.113
CTGGTTAA | 0.102
CCTCTTAG | 0.189
ATGTGGAA | 0.216
GGAATAAC | -0.0369
GGCATCGA | -0.157
CGGCCCAC | -0.132
CCCTCCGC | -0.248
AATACACA | 0.162
CAACTGAG | 0.0855
CGGTCAAC | 0.179

Sequence | PBM E-score
GACAACCA | 0.287
ACTTCAGA | -0.0132
TAGCGCCA | -0.154
AGACGCCG | -0.136
GAAGCCGA | -0.119
TAGGGATA | -0.0828
CTTTGCAA | 0.0671
CCTCTCAG | -0.339
GACTCCGC | 0.0635
GGCGCTAA | -0.121
AGACGTTG | -0.194
ACCGGAAC | 0.096
ACCCGTTG | -0.021
CAAGCGCC | -0.207
CACAGGAC | 0.202
AGGGTTGC | -0.13
AGTAGTTC | 0.0583
GTCGGGCA | -0.193
ACCTAGAG | -0.162
ACTTTAGG | 0.0205
AAATCGAT | 0.154
CCAGCCAC | 0.00974
ATTATTGA | -0.00666
CCCCGTAA | -0.048
GAGCCTAC | -0.174

Sequence | PBM E-score
ATGAAACG | -0.0216
AAGAGAGG | -0.0384
GAAAAGTC | 0.326
AGAATGCT | -0.0514
AAATGTTG | -0.0982
TACATGGA | 0.193
GTCCGGGA | 0.336
ATAATTCC | 0.0966
ATCTCACA | -0.218
CCAATATC | 0.0212
ACCTACCC | -0.19
TAACATTA | 0.0139
AGCAAAGC | -0.143
CCTCACGA | -0.264
TGCGAAAA | 0.0788
AGTGGCAG | -0.164
ATTATATG | 0.249
GGTTCTCA | 0.0386
CACTTCGG | 0.124
CTCAATGA | -0.0628
CCCCGTAG | -0.254
CGTGCGAC | -0.185
TAGGACCA | 0.202
CATCCAAA | -0.0473
ACCCGGTC | -0.023

Sequence | PBM E-score
ACTTATTC | 0.126
AAGCTTCG | -0.068
CCGGCTTC | -0.146
AAGTTGAT | 0.016
GAGGGTGC | -0.243
CATAATCA | 0.149
CCTCTCTC | -0.319
AGTGTCTG | 0.154
ACTGATGC | -0.154
CGCATGAC | 0.0618
TCGTGCAA | 0.157
CTGGCCCA | -0.274
AGGTGTCG | -0.011
AGCCGCTA | -0.0778
CATCAGGA | 0.258
AATCAAGC | -0.0365
AGACACCC | -0.165
CAACTTAC | -0.0449
AATTAATA | 0.352
CGCTCCAG | -0.16
GAGTGCGC | 0.0269
ATCACGTG | 0.094
ATAATATA | 0.156
TCAGAGCA | -0.227
GCACGGCA | 0.00341

Sequence | PBM E-score
AAATTCCA | 0.192
GGGAGGTA | -0.164
ATATGATA | 0.253
ACGCTGTG | 0.111
ACAACAAC | 0.0976
ACTCAAAT | 0.1
GACTTAAC | -0.0619
ACGGTTGC | -0.213
GTTATCGA | 0.0669
ACTTAAAA | 0.152
ATGCGCGC | 0.114
CGGCTATC | -0.086
CTGGCCAA | -0.0295
AAGGGGCC | -0.191
CACATTCC | 0.0503
CCCATAGG | -0.0495
GTATCAAA | 0.16
CCTTGGCA | -0.155
CCCTGCAA | -0.246
CTTAACAC | -0.0629
AAGCCCTA | -0.0743
ACGGGAGT | -0.0246
CACCTCGC | -0.168
AGTTATTG | 0.0423
CAAGCGTA | -0.0459

Sequence | PBM E-score
GGTGGTCA | -0.237
ACTCCACC | -0.0279
ATCTTTTC | 0.117
TGTGGAAA | 0.18
AACTATTC | 0.00545
AGGCAGAG | -0.114
CCCGCTGA | -0.179
ATTCCCGC | 0.163
AGGAGCCG | -0.304
CCCTATTC | -0.101
AGAGAACA | 0.00043
ACATAGCC | 0.108
TGGCCCCA | -0.338
AGAGAACC | -0.28
ACTTGGGC | -0.109
CCTAAGAG | -0.0591
GAATTCCA | 0.162
AAATCTTC | -0.0522
CTAGATAG | -0.0926
ATACGGAA | 0.255
ACCTGCCT | -0.191
AGTCACGC | -0.197

Reference: the supplement of paper PMC3334620
